Assay results: patent US20100075953A1, “SUBSTITUTED PIPERAZINES, (1,4) DIAZEPINES, AND 2,5-DIAZABICYCLO (2.2.1) HEPTANES AS HISTAMINE H1 AND/OR H3 ANTAGONISTS OR HISTAMINE H3 REVERSE ANTAGONISTS” (Glaxo Group Limited, priority 2002, published 2010)
Some results were stated once for a whole list of compounds, not compound by compound.

Assays:
histamine H3 receptor = histamine H3 receptor (Homo sapiens, UniProt Q9Y5N1); test: Histamine H3 functional antagonist assay; conditions: membranes of CHO K1 cells expressing human H3; [35S]GTPgammaS SPA; histamine 0.3 μM
human H1 receptor = target: T1, human H1 receptor (Homo sapiens, UniProt P35367); test: Histamine H1 functional antagonist assay; assay type: cell-based; conditions: CHO cells expressing human H1, suppression of histamine induced increase in fluorescence (FLIPR)
T1 construct: expressed in transfected cells
T1 sequence (P35367 whole entry): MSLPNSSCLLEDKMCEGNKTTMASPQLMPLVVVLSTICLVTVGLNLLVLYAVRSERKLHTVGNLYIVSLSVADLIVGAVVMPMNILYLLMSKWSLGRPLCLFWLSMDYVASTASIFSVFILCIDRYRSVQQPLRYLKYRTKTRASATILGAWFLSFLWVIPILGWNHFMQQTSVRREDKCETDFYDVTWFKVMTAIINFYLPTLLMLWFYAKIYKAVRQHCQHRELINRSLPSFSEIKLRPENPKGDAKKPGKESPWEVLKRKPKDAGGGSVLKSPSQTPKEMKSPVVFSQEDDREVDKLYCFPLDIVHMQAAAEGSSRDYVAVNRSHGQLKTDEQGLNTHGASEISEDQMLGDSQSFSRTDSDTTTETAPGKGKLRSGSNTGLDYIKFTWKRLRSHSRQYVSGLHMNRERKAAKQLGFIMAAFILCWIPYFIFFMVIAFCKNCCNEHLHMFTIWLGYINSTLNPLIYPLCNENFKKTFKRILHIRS

Sequence of histamine H3 receptor (Q9Y5N1 whole entry): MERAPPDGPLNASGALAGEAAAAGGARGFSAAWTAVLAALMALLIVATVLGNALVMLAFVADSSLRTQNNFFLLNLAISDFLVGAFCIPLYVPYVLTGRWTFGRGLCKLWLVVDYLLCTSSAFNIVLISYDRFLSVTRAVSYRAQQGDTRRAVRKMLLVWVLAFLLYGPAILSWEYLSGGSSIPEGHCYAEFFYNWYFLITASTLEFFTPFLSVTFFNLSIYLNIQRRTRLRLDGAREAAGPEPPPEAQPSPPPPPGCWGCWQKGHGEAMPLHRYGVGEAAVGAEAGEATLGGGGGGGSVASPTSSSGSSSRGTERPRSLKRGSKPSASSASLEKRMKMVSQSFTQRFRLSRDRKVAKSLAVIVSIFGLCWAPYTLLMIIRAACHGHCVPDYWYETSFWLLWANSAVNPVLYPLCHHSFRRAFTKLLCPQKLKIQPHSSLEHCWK

With `Cc1ccc(C(C)C)cc1C(=O)N1CCN(c2ccc(OCCCN3CCCCC3)cc2)CC1` [Example E110] the “antagonism in the histamine H3 functional antagonist assay (pKb)” value (histamine H3 receptor) was greater than 6.5 pKb, the “antagonism in the histamine H1 functional antagonist assay (pKb)” value (human H1 receptor) was greater than 7.3 pKb and the “antagonism in the histamine H1 functional antagonist assay (pKb)” value (human H1 receptor; listed as Example E110) was greater than 6.5 pKb.
For `CCCc1ccc(C)c(C(=O)N2CCN(c3ccc(OCCCN(C)C4CCCC4)cc3)CC2)c1` [Example E174], the “antagonism in the histamine H3 functional antagonist assay (pKb)” value (histamine H3 receptor) was greater than 6.5 pKb and the “antagonism in the histamine H1 functional antagonist assay (pKb)” value (human H1 receptor) was greater than 6.5 pKb.
For `O=C(O)C(F)(F)F.O=C(c1cccc(C(F)(F)F)c1)N1CCN(c2ccc(OCCCN3CCCCCCC3)cc2)CC1` [Example E167], the “antagonism in the histamine H3 functional antagonist assay (pKb)” value (histamine H3 receptor) was greater than 6.5 pKb and the “antagonism in the histamine H1 functional antagonist assay (pKb)” value (human H1 receptor) was greater than 6.5 pKb.
`C=Cc1cccc(C(=O)N2CCN(c3ccc(OCCCN4CCCCCCC4)cc3)CC2)c1.O=C(O)C(F)(F)F` [Example E165] was tested, and the “antagonism in the histamine H3 functional antagonist assay (pKb)” value (histamine H3 receptor) was greater than 6.5 pKb and the “antagonism in the histamine H1 functional antagonist assay (pKb)” value (human H1 receptor) was greater than 6.5 pKb.
`C=CCOc1cccc(C(=O)N2CCN(c3ccc(OCCCN4CCCCC4)cc3)CC2)c1` [Example E78] was tested, and the “antagonism in the histamine H3 functional antagonist assay (pKb)” value (histamine H3 receptor) was greater than 6.5 pKb and the “antagonism in the histamine H1 functional antagonist assay (pKb)” value (human H1 receptor) was greater than 6.5 pKb.
In the case of `CC1(C)CCCN(CCCOc2ccc(N3CCN(C(=O)c4ccc(Cl)c(Cl)c4)CC3)cc2)C1.O=C(O)C(F)(F)F` [Example E210], the “antagonism in the histamine H3 functional antagonist assay (pKb)” value (histamine H3 receptor) is reported as greater than 6.5 pKb, the “antagonism in the histamine H1 functional antagonist assay (pKb)” value (human H1 receptor) is reported as greater than 7.3 pKb and the “antagonism in the histamine H1 functional antagonist assay (pKb)” value (human H1 receptor; listed as Example E210) is reported as greater than 6.5 pKb.
For `CCC1CCC(C)N(CCCOc2ccc(N3CCN(C(=O)c4cn(C)c5ccc(F)cc45)CC3)cc2)C1` (centres unmarked) [Example E143], the “antagonism in the histamine H3 functional antagonist assay (pKb)” value (histamine H3 receptor) was greater than 6.5 pKb and the “antagonism in the histamine H1 functional antagonist assay (pKb)” value (human H1 receptor) was greater than 6.5 pKb.
`O=C(c1cccc(C(F)(F)F)c1)N1CCN(c2ccc(OCCCN3CCCCC3)cc2)CC1` [Example E84] was tested, and the “antagonism in the histamine H3 functional antagonist assay (pKb)” value (histamine H3 receptor) was greater than 6.5 pKb, the “antagonism in the histamine H1 functional antagonist assay (pKb)” value (human H1 receptor) was greater than 7.3 pKb and the “antagonism in the histamine H1 functional antagonist assay (pKb)” value (human H1 receptor; listed as Example E84) was greater than 6.5 pKb.
With `CC1CCCN(CCCOc2ccc(N3CCN(C(=O)c4ccc5c(c4)CCCC5)CC3)cc2)C1` (centres unmarked) [Example E203] the “antagonism in the histamine H3 functional antagonist assay (pKb)” value (histamine H3 receptor) was greater than 6.5 pKb and the “antagonism in the histamine H1 functional antagonist assay (pKb)” value (human H1 receptor) was greater than 6.5 pKb.
For `Cc1ccc(C(C)C)c(C(=O)N2CCN(c3ccc(OCCCN4CCCC4C)cc3)CC2)c1` (centres unmarked) [Example E123], the “antagonism in the histamine H3 functional antagonist assay (pKb)” value (histamine H3 receptor) was greater than 6.5 pKb and the “antagonism in the histamine H1 functional antagonist assay (pKb)” value (human H1 receptor) was greater than 6.5 pKb.
For `Cc1ccc(C(C)C)cc1C(=O)N1CCN(c2ccc(OCCCN3CCCC3C)cc2)CC1` (centres unmarked) [Example E127], the “antagonism in the histamine H3 functional antagonist assay (pKb)” value (histamine H3 receptor) was greater than 6.5 pKb and the “antagonism in the histamine H1 functional antagonist assay (pKb)” value (human H1 receptor) was greater than 6.5 pKb.
For `CCSc1cccc(C(=O)N2CCN(c3ccc(OCCCN4CCCC4C)cc3)CC2)c1` (centres unmarked) [Example E126], the “antagonism in the histamine H3 functional antagonist assay (pKb)” value (histamine H3 receptor) was greater than 6.5 pKb and the “antagonism in the histamine H1 functional antagonist assay (pKb)” value (human H1 receptor) was greater than 6.5 pKb.
`COC(=O)COc1ccc(C(=O)N2CCN(c3ccc(OCCCN(C)C4CCCC4)cc3)CC2)c2ccccc12` [Example E181] was tested, and the “antagonism in the histamine H3 functional antagonist assay (pKb)” value (histamine H3 receptor) was greater than 6.5 pKb and the “antagonism in the histamine H1 functional antagonist assay (pKb)” value (human H1 receptor) was greater than 6.5 pKb.
For `CC1CCCN(CCCOc2ccc(N3CCN(C(=O)c4cccc(C(F)(F)F)c4)CC3)cc2)C1` (centres unmarked) [Example E201], the “antagonism in the histamine H3 functional antagonist assay (pKb)” value (histamine H3 receptor) was greater than 6.5 pKb and the “antagonism in the histamine H1 functional antagonist assay (pKb)” value (human H1 receptor) was greater than 6.5 pKb.
`Cc1cc(Br)ccc1C(=O)N1CCN(c2ccc(OCCCN3CCCCCCC3)cc2)CC1.O=C(O)C(F)(F)F` [Example E163] was tested, and the “antagonism in the histamine H3 functional antagonist assay (pKb)” value (histamine H3 receptor) was greater than 6.5 pKb and the “antagonism in the histamine H1 functional antagonist assay (pKb)” value (human H1 receptor) was greater than 6.5 pKb.
For `Cc1ccc(C)c(C(=O)N2CCN(c3ccc(OCCCN4CCCCCCC4)cc3)CC2)c1.O=C(O)C(F)(F)F` [Example E168], the “antagonism in the histamine H3 functional antagonist assay (pKb)” value (histamine H3 receptor) was greater than 6.5 pKb and the “antagonism in the histamine H1 functional antagonist assay (pKb)” value (human H1 receptor) was greater than 6.5 pKb.
In the case of `O=C(O)c1ccc(C(=O)N2CCN(c3ccc(OCCCN4CCCCC4)cc3)CC2)c2ccccc12` [Example E252, 1-(4-Carboxy-1-naphthoyl)-4-[4-(3-piperidin-1-ylpropoxy)phenyl]piperazine di(trifluoroacetate)], the “antagonism in the histamine H3 functional antagonist assay (pKb)” value (histamine H3 receptor) is reported as greater than 6.5 pKb and the “antagonism in the histamine H1 functional antagonist assay (pKb)” value (human H1 receptor) is reported as greater than 6.5 pKb.
With `O=C(O)C(F)(F)F.O=C(c1ccc(F)cc1C(F)(F)F)N1CCN(c2ccc(OCCCN3CCCCCCC3)cc2)CC1` [Example E164] the “antagonism in the histamine H3 functional antagonist assay (pKb)” value (histamine H3 receptor) was greater than 6.5 pKb and the “antagonism in the histamine H1 functional antagonist assay (pKb)” value (human H1 receptor) was greater than 6.5 pKb.
For `CC1CCN(CCCOc2ccc(N3CCN(C(=O)c4cccc5ccccc45)CC3)cc2)CC1` [Example E72], the “antagonism in the histamine H3 functional antagonist assay (pKb)” value (histamine H3 receptor) was greater than 6.5 pKb and the “antagonism in the histamine H1 functional antagonist assay (pKb)” value (human H1 receptor) was greater than 6.5 pKb.
In the case of `CC1(C)Cc2cccc(C(=O)N3CCN(c4ccc(OCCCN5CCCCC5)cc4)CC3)c2O1` [Example E104], the “antagonism in the histamine H3 functional antagonist assay (pKb)” value (histamine H3 receptor) is reported as greater than 6.5 pKb and the “antagonism in the histamine H1 functional antagonist assay (pKb)” value (human H1 receptor) is reported as greater than 6.5 pKb.
`O=C(c1cccc2ccccc12)N1CCN(CCc2ccc(OCCCN3CCCCCCC3)cc2)CC1.O=CO` [Example E473] was tested, and the “antagonism in the histamine H3 functional antagonist assay (pKb)” value (histamine H3 receptor) was greater than 6.5 pKb, the “antagonism in the histamine H1 functional antagonist assay (pKb)” value (human H1 receptor) was greater than 7.3 pKb and the “antagonism in the histamine H1 functional antagonist assay (pKb)” value (human H1 receptor; listed as Example E473) was greater than 6.5 pKb.
With `CCc1ccc(C)c(C(=O)N2CCN(c3ccc(OCCCN4CC(CC)CCC4C)cc3)CC2)c1` (centres unmarked) [Example E145] the “antagonism in the histamine H3 functional antagonist assay (pKb)” value (histamine H3 receptor) was greater than 6.5 pKb and the “antagonism in the histamine H1 functional antagonist assay (pKb)” value (human H1 receptor) was greater than 6.5 pKb.
In the case of `CC1CCN(CCOc2ccc(CCN3CCN(C(=O)c4cccc5ccccc45)CC3)cc2)CC1.O=CO` [Example E478], the “antagonism in the histamine H3 functional antagonist assay (pKb)” value (histamine H3 receptor) is reported as greater than 6.5 pKb and the “antagonism in the histamine H1 functional antagonist assay (pKb)” value (human H1 receptor) is reported as greater than 6.5 pKb.
`CC1CCCN(CCCOc2ccc(N3CCN(C(=O)c4ccc(F)cc4C(F)(F)F)CC3)cc2)C1` (centres unmarked) [Example E196] was tested, and the “antagonism in the histamine H3 functional antagonist assay (pKb)” value (histamine H3 receptor) was greater than 6.5 pKb and the “antagonism in the histamine H1 functional antagonist assay (pKb)” value (human H1 receptor) was greater than 6.5 pKb.
For `CN(CCCOc1ccc(N2CCN(C(=O)c3cccc(Br)c3)CC2)cc1)C1CCCC1` [Example E176], the “antagonism in the histamine H3 functional antagonist assay (pKb)” value (histamine H3 receptor) was greater than 6.5 pKb and the “antagonism in the histamine H1 functional antagonist assay (pKb)” value (human H1 receptor) was greater than 6.5 pKb.
`COC(=O)COc1ccc(C(=O)N2CCN(c3ccc(OCCCN4CCCCC4)cc3)CC2)c2ccccc12` [Example E253, 1-[4-(Methoxycarbonylmethoxy)naphth-1-oyl]-4-[4-(3-piperidin-1-ylpropoxy)phenyl]piperazine] was tested, and the “antagonism in the histamine H3 functional antagonist assay (pKb)” value (histamine H3 receptor) was greater than 6.5 pKb and the “antagonism in the histamine H1 functional antagonist assay (pKb)” value (human H1 receptor) was greater than 6.5 pKb.
For `Cc1cccc(C(=O)N2CCN(c3ccc(OCCCN4CCCCC4)cc3)CC2)c1C` [Example E113], the “antagonism in the histamine H3 functional antagonist assay (pKb)” value (histamine H3 receptor) was greater than 6.5 pKb and the “antagonism in the histamine H1 functional antagonist assay (pKb)” value (human H1 receptor) was greater than 6.5 pKb.
`CC1CCC(C)N1CCCOc1ccc(CCN2CCN(C(=O)c3cccc4ccccc34)CC2)cc1.O=CO` (centres unmarked) [Example E471] was tested, and the “antagonism in the histamine H3 functional antagonist assay (pKb)” value (histamine H3 receptor) was greater than 6.5 pKb, the “antagonism in the histamine H1 functional antagonist assay (pKb)” value (human H1 receptor) was greater than 7.3 pKb and the “antagonism in the histamine H1 functional antagonist assay (pKb)” value (human H1 receptor; listed as Example E471) was greater than 6.5 pKb.
In the case of `c1cc(CN2CCN(c3cccc4ccccc34)CC2)cc(OCCCN2CCCCCC2)c1` [Example E234], the “antagonism in the histamine H3 functional antagonist assay (pKb)” value (histamine H3 receptor) is reported as greater than 6.5 pKb and the “antagonism in the histamine H1 functional antagonist assay (pKb)” value (human H1 receptor) is reported as greater than 6.5 pKb.
With `CC1CCCCN1CCCOc1ccc(N2CCN(C(=O)c3cccc(Br)c3)CC2)cc1` (centres unmarked) [Example E161] the “antagonism in the histamine H3 functional antagonist assay (pKb)” value (histamine H3 receptor) was greater than 6.5 pKb and the “antagonism in the histamine H1 functional antagonist assay (pKb)” value (human H1 receptor) was greater than 6.5 pKb.
`O=C(O)C(F)(F)F.O=C(c1ccc2c(c1)CCCC2)N1CCN(c2ccc(OCCCN3CCCCCCC3)cc2)CC1` [Example E169] was tested, and the “antagonism in the histamine H3 functional antagonist assay (pKb)” value (histamine H3 receptor) was greater than 6.5 pKb and the “antagonism in the histamine H1 functional antagonist assay (pKb)” value (human H1 receptor) was greater than 6.5 pKb.
In the case of `O=C(c1cc(-c2ccccc2)ccn1)N1CCN(c2ccc(OCCCN3CCCCC3)cc2)CC1` [Example E101], the “antagonism in the histamine H3 functional antagonist assay (pKb)” value (histamine H3 receptor) is reported as greater than 6.5 pKb and the “antagonism in the histamine H1 functional antagonist assay (pKb)” value (human H1 receptor) is reported as greater than 6.5 pKb.
For `CN(C)c1ccc(C(=O)N2CCN(c3ccc(OCCCN4CCCCC4)cc3)CC2)c2ccccc12` [Example E250], the “antagonism in the histamine H3 functional antagonist assay (pKb)” value (histamine H3 receptor) was greater than 6.5 pKb and the “antagonism in the histamine H1 functional antagonist assay (pKb)” value (human H1 receptor) was greater than 6.5 pKb.
